Data taken from the supplement of paper PMC3334620.
Over roughly 33,000 sequences, “E-score (-0.5 to 0.5)” has its median near -0.01; the highest 2% begin near 0.26. The list shows a part of the results.

target: Ste12 (UniProt P13574); test: PBM E-score (8-mer binding enrichment) (E-score (-0.5 to 0.5)); higher = stronger / more preferred TF binding; most listed sequences are background and not binding sites; conditions: protein concentration: 200 nM; construct: GST-DNA-binding domain
Summary of the method: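 Full-length yeast transcription factors or their DNA-binding domains, GST-tagged and expressed with PURExpress, were applied at about 100-200 nM to universal all-10-mer Agilent arrays. These arrays had been made double-stranded by primer extension on fresh or once-stripped slides. Detection used fluorescent anti-GST, normalisation used masliner, and E-scores for ungapped eight-base words pooled with reverse complements came from the Universal PBM Analysis Suite.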

Row | Sequence | PBM E-score
1 | AAGGGGGG | -0.261
2 | ACTAGGGC | -0.163
3 | CAGCACAC | -0.16
4 | ACAACAAG | 0.0013
5 | GGACCCTA | -0.301
6 | GCTGCGGA | 0.0307
7 | GTGTATCA | 0.301
8 | CCCCAACG | -0.0961
9 | CGAGTAAC | 0.0756
10 | ACGTGCAT | -0.203
11 | CTAGCACA | -0.22
12 | TTCGACAA | -0.0424
13 | ACTTCCCC | -0.117
14 | ACTCGTCA | 0.0406
15 | CTTAGGGA | -0.316
16 | AGTGTCAG | 0.0128
17 | ACTCCATC | -0.107
18 | AAGTTAGG | -0.0455
19 | CACGGGCA | -0.157
20 | GGTTATCA | 0.00703
21 | CTTCTGGC | 0.0295
22 | AACTTTGT | 0.0244
23 | ATTCCCCA | -0.0812
24 | CAGTAACC | 0.0714
25 | CTCATGCC | -0.209

Row | Sequence | PBM E-score
26 | ACGACGGG | -0.095
27 | CTTTTGTA | 0.149
28 | AGCGAGAC | -0.0839
29 | CCTAGTAC | -0.25
30 | CTGCACCA | -0.0106
31 | CCAGGCAA | 0.0679
32 | GTGGTGAA | 0.0592
33 | TGCAACCA | 0.193
34 | CCTGGACA | -0.177
35 | CGCCATGC | -0.132
36 | ATATAATA | 0.201
37 | GGGTAACA | -0.0668
38 | CACGCGTC | 0.174
39 | CGCCGTGA | 0.0593
40 | CACGGGGC | -0.0164
41 | AGAGGTCA | -0.0617
42 | CATTCACG | -0.0119
43 | GGTGTGGA | 0.114
44 | GGACCTAA | 0.145
45 | CGTGGAAG | 0.0472
46 | CGCCTTAA | 0.153
47 | GGGGGACA | 0.0383
48 | AGACCCTC | -0.232
49 | CCCTTAAC | -0.0198
50 | ATCACTTC | 0.0214

Row | Sequence | PBM E-score
51 | ACTACCTA | -0.242
52 | CGACGAAG | -0.03
53 | CTATAGAC | -0.217
54 | GTGTAGAA | -0.0218
55 | AGCTTGGG | -0.0284
56 | GGTTTGCA | 0.093
57 | CCCTAGCA | -0.0486
58 | GCTCTGCC | -0.208
59 | CCAGAACC | 0.00617
60 | CCAAAGCA | 0.0448
61 | AATTACCC | 0.0106
62 | AACCATTG | -0.131
63 | ATCCTTGC | -0.238
64 | CAGAATGA | 0.0622
65 | GAAATGAA | 0.331
66 | CATTGCGA | 0.169
67 | AGTTCCTG | -0.263
68 | CGTTCAAA | 0.0556
69 | CCTCTTAC | -0.166
70 | TGGCTCAA | 0.00506
71 | AATCTGAT | -0.0901
72 | AGCAAACA | 0.0976
73 | CAGCGTCA | -0.184
74 | CCAGGTCA | -0.127
75 | GGGTTAAC | -0.0583

Row | Sequence | PBM E-score
76 | CATTGAGA | 0.0251
77 | GGATTCCC | -0.294
78 | CGACTCGA | -0.0782
79 | AAATGAAA | 0.426
80 | AGGCTTAA | -0.171
81 | CGTCGGAA | 0.072
82 | GAGATGGA | -0.167
83 | ACGAGGGA | 0.0634
84 | CGCAAAGC | -0.0999
85 | CTCCGAAA | 0.00449
86 | CCACTTGC | -0.164
87 | ACCCATCT | -0.019
88 | CAAGAACA | -0.0156
89 | ATCTCCGC | 0.0598
90 | GGTATGTA | 0.0738
91 | GCGCTCGA | -0.00155
92 | TAATTCTA | 0.267
93 | CTCCTGGA | -0.166
94 | GCCGGACA | 0.109
95 | ACGTCGGG | -0.221
96 | CCGCGTTA | 0.0312
97 | ATCCAGTG | -0.0497
98 | AGTTTAAG | -0.0301
99 | CTGAGACA | 0.224
100 | TTAAGCAA | 0.171

Row | Sequence | PBM E-score
101 | GATTAGGA | -0.0025
102 | CTCAGGAA | -0.141
103 | ATGTTATA | 0.0142
104 | ATAGGCAA | -0.16
105 | ACTCGCTC | 0.0471
106 | AGGAACCT | -0.00887
107 | CTAGATGC | -0.135
108 | AGGATTCC | -0.256
109 | GGCCGCCA | -0.14
110 | CCATCTCC | -0.0357
111 | AGCTCTTA | -0.142
112 | GACTGTGA | 0.0814
113 | AGCCCATA | -0.121
114 | CCCATCGC | -0.126
115 | GTTTCTTA | 0.255
116 | CGTGACCC | -0.0971
117 | AGTGGCCG | -0.22
118 | GGCTGAAA | 0.27
119 | CTCTCGCC | -0.096
120 | AGATCGAA | 0.108
121 | GAATTACA | 0.14
122 | GCGGGAAA | 0.121
123 | ATGTCGGA | 0.0594
124 | CGTATTAG | 0.193
125 | TCTAGAGA | -0.212

Row | Sequence | PBM E-score
126 | CCATAATA | 0.121
127 | CCCTGAGG | -0.213
128 | CAGTGATC | 0.0344
129 | AAAAGGTT | -0.0206
130 | ATTCATCC | 0.00901
131 | AGATAGTC | -0.253
132 | CCGTTGCG | -0.0934
133 | CACACGTA | -0.192
134 | GAGTGTGA | 0.0238
135 | CGGCCAAC | -0.01
136 | ATCCCTAA | -0.282
137 | GCAGCGGC | -0.114
138 | AAAGCCGC | 0.00426
139 | CGGAGGGA | -0.214
140 | GAGAAACA | 0.179
141 | AAATTGGA | 0.0787
142 | ACCAGGTA | -0.0709
143 | AACGATTG | -0.0702
144 | AGGTAGTG | -0.123
145 | CCTTGGAG | -0.0707
146 | ACCGTCCT | -0.234
147 | CAATGAGA | -0.00961
148 | ACGGTTAT | 0.0788
149 | ACCAGCGC | -0.0495
150 | GCTTGATA | 0.083

Row | Sequence | PBM E-score
151 | TCCTAAGA | -0.00559
152 | ATATGATG | -0.0703
153 | GTTGTAAA | 0.0455
154 | AGGGCAGC | -0.327
155 | AAACATGG | 0.206
156 | ATGCACAA | 0.0737
157 | AGTCACCC | -0.0517
158 | CGTCGGTA | -0.0954
159 | GAATAAAA | 0.137
160 | AATGAAGT | -0.00833
161 | TCAAATGA | 0.0955
162 | ATATCGGG | 0.0327
163 | GGACTCTA | -0.243
164 | ACGGCGAG | 0.0521
165 | GCATACAA | -0.0844
166 | AACGGGAA | 0.0292
167 | ACGTGTAG | -0.182
168 | ACCACGTG | 0.0498
169 | GCATCCCC | -0.131
170 | ATTATTAA | 0.242
171 | CACGCCGG | 0.141
172 | TGAAAAAA | 0.293
